# From the supplement of paper PMC9446081
# Out of some 39,000 compounds screened, about 220 (0.56%) showed activity. The list shows a part of the results.
# Tested on: Escherichia coli K-12 BW25113
# Assay: relative growth (OD600 normalised to plate interquartile mean) (fraction); higher = less growth inhibition, active = 0.2 or less
# Details: 50 µM; LB; incubation time: overnight (16-24 h)
# 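Also: static incubation at 37 °C against the wild-type strain, values averaged over two biological replicates.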
row,SMILES,relative growth
1,CC(C)NC(=O)N(C)C[C@H]1Oc2ccc(NC(=O)Nc3ccc4c(c3)OCO4)cc2CC(=O)N([C@@H](C)CO)C[C@@H]1C,inactive: 0.919
2,C[C@@H]1CN([C@@H](C)CO)C(=O)c2cc(C#Cc3ccncc3)cnc2O[C@H]1CN(C)S(=O)(=O)c1ccccc1F,inactive: 1
3,C[C@H]1CN([C@@H](C)CO)C(=O)c2cc(NC(=O)Nc3cccc4ccccc34)ccc2O[C@H]1CN(C)C(=O)NC1CCCCC1,inactive: 0.982
4,NC(=O)c1ccco1,inactive: 0.994
5,O=C(C[C@@H]1C=C[C@@H](NS(=O)(=O)c2ccc(F)cc2)[C@H](CO)O1)N1CCC(Cc2ccccc2)CC1,inactive: 1.01
6,C[C@H]1CN([C@@H](C)CO)C(=O)c2cc(C#Cc3ccccc3F)cnc2O[C@H]1CN(C)C(=O)Cc1ccncc1,inactive: 0.983
7,C[C@@H]1CN([C@@H](C)CO)C(=O)c2cc(NS(=O)(=O)c3cn(C)cn3)ccc2O[C@@H](C)CCCCO[C@H]1CN(C)CC1CC1,inactive: 0.986
8,COc1ccc(NC(=O)N(C)C[C@H]2Oc3c(NC(=O)C4CCOCC4)cccc3C(=O)N([C@H](C)CO)C[C@H]2C)cc1,inactive: 0.988
9,C[C@@H]1CN([C@H](C)CO)C(=O)c2cc(NC(=O)c3ccncc3)ccc2O[C@@H](C)CCCCO[C@@H]1CN(C)S(=O)(=O)c1ccc(Cl)cc1,inactive: 0.997
10,O=C1c2c(O)cccc2Cc2cccc(O)c21,inactive: 0.882
11,C[C@@H]1CN([C@@H](C)CO)C(=O)c2cccc(NC(=O)CCCCCC(=O)Nc3ccccc3N)c2O[C@H]1CN(C)Cc1ccc(Oc2ccccc2)cc1,inactive: 0.912
12,O=c1[nH]c2ccccc2n2cnnc12,inactive: 0.952
13,Cc1ccc(S(=O)(=O)N(C)C[C@H]2Oc3c(NC(=O)Nc4cccc5ccccc45)cccc3C(=O)N([C@@H](C)CO)C[C@@H]2C)cc1,inactive: 1.03
14,C[C@@H]1CN([C@H](C)CO)C(=O)c2cc(NS(=O)(=O)c3cn(C)cn3)ccc2O[C@@H](C)CCCCO[C@H]1CN(C)S(=O)(=O)c1ccccc1,inactive: 0.984
15,CCCN(C)C[C@H]1OCCCC[C@@H](C)Oc2ccc(NC(=O)c3ccccc3)cc2C(=O)N([C@H](C)CO)C[C@H]1C,inactive: 1
16,CCCN(C)C[C@@H]1OCCCC[C@@H](C)Oc2ccc(NS(C)(=O)=O)cc2C(=O)N([C@H](C)CO)C[C@H]1C,inactive: 1
17,O=C(C[C@H]1CC[C@@H]2[C@H](COC[C@@H](O)CN2S(=O)(=O)c2ccccc2)O1)N[C@@H]1CCN(Cc2ccccc2)C1,inactive: 1.01
18,C[C@H](CO)N1C[C@H](C)[C@H](CN(C)C(=O)Nc2ccccc2)Oc2ccc(NC(=O)CCN3CCOCC3)cc2C1=O,inactive: 0.973
19,C[C@H](CO)N1C[C@H](C)[C@H](CN(C)Cc2ccc(Cl)c(Cl)c2)OCCCC[C@H](C)Oc2ccc(NS(C)(=O)=O)cc2C1=O,inactive: 1.01
20,O=C(C[C@@H]1C[C@@H]2c3cc(NC(=O)C4CCOCC4)ccc3O[C@@H]2[C@@H](CO)O1)NCc1ccc(Cl)cc1,inactive: 0.984

row,SMILES,relative growth
1,C[C@@H]1CN([C@@H](C)CO)C(=O)Cc2cc(NS(=O)(=O)c3ccc(Cl)cc3)ccc2O[C@@H]1CN(C)S(=O)(=O)c1cn(C)cn1,inactive: 0.98
2,C[C@H](CO)N1C[C@H](C)[C@@H](CN(C)C(=O)CCC(F)(F)F)OCCCC[C@H](C)Oc2ccc(NS(=O)(=O)c3ccc(F)cc3)cc2C1=O,inactive: 0.986
3,CC1=Nc2ccccc2NC(C)(C)C1,inactive: 1
4,C[C@H]1CN([C@@H](C)CO)C(=O)Cc2cc(NC(=O)Nc3ccc(C(F)(F)F)cc3)ccc2O[C@@H]1CN(C)Cc1ccc(-c2ccccc2)cc1,inactive: 1.03
5,COCCOC(=O)N1C(=O)[C@@]2(c3cc(C#CCC(C(=O)OC)C(=O)OC)ccc31)[C@H](C(=O)N1CCCCCCC1)[C@H]1C(=O)O[C@H](c3ccccc3)[C@H](c3ccccc3)N1[C@@H]2c1ccc(O)cc1,inactive: 0.997
6,CCN1C(=O)[C@H]2[C@@H](O)CS[C@H]2C1=O,inactive: 1.03
7,Cn1cc(CN2CCO[C@]3(COCCN(S(C)(=O)=O)C3)C2)cn1,inactive: 0.996
8,C[C@@H]1CN([C@H](C)CO)S(=O)(=O)c2ccc(C#CC3(O)CCCC3)cc2O[C@H]1CN(C)C(=O)Cc1ccncc1,inactive: 1.01
9,C[C@H]1CN([C@@H](C)CO)S(=O)(=O)c2ccc(C#CC3CC3)cc2O[C@H]1CN(C)C(=O)c1cccc(F)c1,inactive: 1.01
10,C[C@@H]1CCCCO[C@H](CN(C)C(=O)Nc2cccc3ccccc23)[C@@H](C)CN([C@@H](C)CO)C(=O)c2cc(NC(=O)c3ccccc3)ccc2O1,inactive: 1.02
11,C[C@@H]1CN([C@H](C)CO)C(=O)c2cc(NC(=O)C3CCCCC3)ccc2O[C@@H](C)CCCCO[C@H]1CN(C)C(=O)Nc1ccc(C(F)(F)F)cc1,inactive: 1.03
12,CC(=O)c1ccc2c(c1)N(CCCN1CCN(CCO)CC1)c1ccccc1S2.O=C(O)C=CC(=O)O,inactive: 1.17
13,O=C(C[C@H]1CC[C@H]2[C@@H](COC[C@@H](O)CN2S(=O)(=O)c2ccccc2)O1)NCc1ccncn1,inactive: 0.982
14,C[C@@H]1CN([C@H](C)CO)C(=O)c2cc(NC(=O)c3ccccc3)ccc2O[C@@H](C)CCCCO[C@H]1CN(C)Cc1ccc(Cl)c(Cl)c1,inactive: 0.984
15,COc1ccc(S(=O)(=O)N(CC(=O)O)c2ccc(N(CC(=O)O)S(=O)(=O)c3ccc(OC)cc3)c3ccccc23)cc1,inactive: 1.02
16,Cn1c(=O)c2c(nc(SCCNS(=O)(=O)c3ccccc3)n2C)n(C)c1=O,inactive: 1.02
17,C[C@@H]1CN([C@@H](C)CO)C(=O)c2c(c3ccccc3n2C)-c2ccccc2CO[C@@H]1CN(C)C(=O)Nc1ccc(F)cc1,inactive: 1
18,Cc1ccc(S(=O)(=O)N(C)C[C@@H]2Oc3ccc(NC(=O)c4ccncc4)cc3CC(=O)N([C@H](C)CO)C[C@H]2C)cc1,inactive: 0.951
19,C[C@H]1CN([C@@H](C)CO)C(=O)Cc2cc(NS(=O)(=O)c3ccc(Cl)cc3)ccc2O[C@H]1CN(C)C,inactive: 0.979
